Source: PubChem BioAssay AID624417 (National Center for Advancing Translational Sciences (NCATS), 2012)
The campaign covered roughly 410,000 compounds. About 6,400 (1.6%) were called active. This list was built around the results that the source calls inconclusive (neither active nor inactive); the mix of calls is not that of the screen. The call rests on the fitted dose curve; in most records, active means well fitted inhibition curve with a large enough effect; inconclusive means small, poorly fitted or top-dose-only effect; inactive means no such curve, though single readings can be large or run the other way. Potencies of inconclusive entries are left out as doubtful fits.
Further: nearly all actives have a fitted effect of over 55% in size.
On the % scale 0 is the no-effect control and ±100 the full control effect; potency means the concentration at half of the fitted maximal effect; tags describe the fitted curve by direction and shape.

Each molecule was assayed against Glucagon-like peptide 1 receptor (Homo sapiens) (UniProt P43220) (assay: qHTS of GLP-1 Receptor Inverse Agonists (Inhibition Mode)). Details: HEK293 GLP-1R CRE-luciferase, luminescence, 24 h, GLP-1R form is constitutively active; activity change, negative = inhibition: at 38.3 µM (top of the series) unless noted.
Chain of UniProt P43220 (P43220 whole entry, looked up): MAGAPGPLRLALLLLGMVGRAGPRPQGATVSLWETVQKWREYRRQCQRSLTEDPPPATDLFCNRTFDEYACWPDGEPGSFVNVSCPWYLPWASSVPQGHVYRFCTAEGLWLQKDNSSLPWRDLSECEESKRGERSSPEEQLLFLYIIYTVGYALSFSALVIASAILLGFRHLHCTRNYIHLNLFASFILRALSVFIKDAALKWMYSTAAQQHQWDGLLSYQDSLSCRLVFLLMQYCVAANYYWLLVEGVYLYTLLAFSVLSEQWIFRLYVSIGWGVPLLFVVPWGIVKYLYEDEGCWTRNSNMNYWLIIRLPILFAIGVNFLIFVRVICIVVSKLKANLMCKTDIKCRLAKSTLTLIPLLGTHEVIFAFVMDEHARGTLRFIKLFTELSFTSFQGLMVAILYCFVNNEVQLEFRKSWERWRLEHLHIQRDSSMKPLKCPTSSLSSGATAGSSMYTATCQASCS
How it was run: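 Luminescence readout: a drop in cAMP-driven luciferase signal flags inverse agonism at a constitutively active GLP-1R stably expressed in HEK293. Compound exposure lasted 24 hr at 37 deg C, 5% CO2.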
For `CCN1C[C@@H]2[C@@H]3C(=O)N(Cc4ccccc4)C(=O)[C@@H]3[C@](Cc3ccccc3)(C(=O)OC)N2C1=NC`, the “activity change, negative = inhibition” value was inactive: 2.63%. `Cc1csc2nc(-c3cccc(NC(=O)c4cccc(F)c4)c3)cn12` was tested, and the Potency was inconclusive [inhibitor, single point]. In the case of `COc1ccc(-c2ccc(=O)n(Cc3c(F)cccc3Cl)n2)cc1`, the Potency is reported as inconclusive [inhibitor, single point]. For `CC(C)Oc1ccc(CCc2n[nH]c(=S)n2Cc2ccccc2)cc1`, the Potency was inconclusive [inhibitor, single point]. In the case of `O=C(O)/C=C\C(=O)Nc1ccccc1C(=O)NCc1ccccc1`, the Potency is reported as inconclusive [inhibitor, partial curve, poor fit]. For `Cc1cccc(-c2noc(CN(C(=O)c3ccc(C)c(C)c3)C(C)C)n2)c1`, the Potency was inconclusive [inhibitor, single point]. With `CCN(CC)c1ccc2cc(-c3nnc(-c4cccc(Cl)c4)o3)c(=O)oc2c1` the “activity change, negative = inhibition” value was inactive: 8.43%. `Cc1ccc(NS(=O)(=O)c2cccc(C(=O)N3CCCCCCC3)c2)cc1` was tested, and the Potency was inconclusive [inhibitor, partial curve, poor fit]. For `Cc1ccc(NC(=O)c2ccc3nc(Cc4ccccc4)oc3c2)cc1F`, the Potency was inconclusive [inhibitor, single point]. In the case of `COc1ccccc1C(=O)OCCc1ccccc1`, the Potency is reported as inconclusive [inhibitor, single point]. With `Cc1cc(Oc2ccccc2F)nc(NCc2ccccc2)n1` the Potency was inconclusive [inhibitor, single point]. In the case of `CCCCN(C)CCNC(=O)Cn1ncc2c3ccccc3n(CCC)c2c1=O`, the Potency is reported as inconclusive [inhibitor, partial curve, poor fit]. In the case of `COc1ccc(-n2cc(CNCCCn3ccnc3)c(-c3ccccc3Cl)n2)cc1`, the Potency is reported as inconclusive [inhibitor, full curve, poor fit]. With `C[C@@H](C(=O)NCCc1ccccc1)N1C(=O)N2CCc3c([nH]c4ccccc34)[C@@]2(C)C1=O` the Potency was inconclusive [inhibitor, partial curve, poor fit]. For `COc1cc(O)c(C=Nc2ccccc2NS(=O)(=O)c2ccc(C)cc2)c(OC)c1`, the Potency was inconclusive [inhibitor, single point]. With `CCOc1ccc(NC(=O)CCCN2C(=O)C(c3ccccc3)Oc3cccnc32)cc1` (stereo not drawn) the Potency was inconclusive [inhibitor, full curve]. In the case of `Cc1ccc(Nc2ncc(C(=O)NCCCN3CCN(C)CC3)c3ccccc23)cc1Cl`, the Potency is reported as inconclusive [inhibitor, full curve, poor fit]. With `O=C(Nc1cccc(S(=O)(=O)N2CCCC2)c1)c1ccc2c(=O)n3c(nc2c1)CCCCC3` the Potency was inconclusive [inhibitor, single point]. With `CC(=O)N1CCCc2cc(S(=O)(=O)N(C)CC(=O)Nc3ccc(F)c(Cl)c3)ccc21` the “activity change, negative = inhibition” value was inactive: -14.3%. `Cn1c(NCc2cccc(Br)c2)nc2ccccc21` was tested, and the Potency was inconclusive [inhibitor, single point]. In the case of `CC(=NO)C1CCC2C3CCC4=CC(=NO)CCC4(C)C3C(O)CC12C` (stereo not drawn), the Potency is reported as inconclusive [inhibitor, single point]. For `CCCCOc1cccc(/C=N/NC(=O)c2csc(C)c2C)c1`, the Potency was inconclusive [inhibitor, single point]. `CCOc1ccc(-c2cc3c(=O)n(CC(=O)Nc4c(C)cccc4C)ccn3n2)cc1` was tested, and the “activity change, negative = inhibition” value was inactive: 18.7%. For `Cc1c(C(=O)OCCOc2ccccc2)[nH]c2c1C(=O)CCC2`, the Potency was inconclusive [inhibitor, single point]. `Cc1cccc(Cn2c(CNS(=O)(=O)c3ccc(Cl)s3)nc3cccnc32)c1` was tested, and the Potency was inconclusive [inhibitor, single point]. For `Cc1ccc(NC(=O)CCNS(=O)(=O)c2ccc3c(c2)CCC(=O)N3)c(Br)c1`, the “activity change, negative = inhibition” value was inactive: -14.9%. For `CN(/N=C\c1ccc(O)c(O)c1)c1nc(-c2ccccc2)cc(-c2ccccc2)n1`, the Potency was inconclusive [inhibitor, single point]. `Cc1ccc(-n2ncc(C(=O)NCc3cccs3)c2C2CCN(C(=O)OC(C)(C)C)CC2)cc1C` was tested, and the Potency was inconclusive [inhibitor, single point]. For `CC[C@@]12C(=O)N(c3cccc(F)c3)C(=O)N1[C@H](c1ccc(Br)cc1)[C@@H]1C(=O)N(C(C)(C)C)C(=O)[C@@H]12`, the Potency was inconclusive [inhibitor, partial curve, poor fit]. With `O=C(NC(=S)Nc1ccccn1)c1ccc(-c2ccccc2)cc1` the Potency was inconclusive [inhibitor, full curve, poor fit]. With `Brc1ccc(Oc2ncc(CN3CCN(c4ccccc4)CC3)s2)cc1` the Potency was inconclusive [inhibitor, single point]. With `CCc1cccc2c(C(=O)COC(=O)/C=C/c3ccc(O)c(OC)c3)c[nH]c12` the Potency was inconclusive [inhibitor, single point]. For `O=C1CN(C(=O)CC2c3ccccc3-c3ccccc32)CC(=O)N1`, the “activity change, negative = inhibition” value was inactive: 5.27%. In the case of `c1ccc(CC2CCN(c3nc4ccccc4n4nnnc34)CC2)cc1`, the Potency is reported as inconclusive [inhibitor, single point]. In the case of `CCOc1cccc2sc(N(CCCN(C)C)C(=O)c3ccc(S(=O)(=O)N4CCc5ccccc5C4)cc3)nc12`, the Potency is reported as inconclusive [inhibitor, partial curve, poor fit]. With `CC(C)Oc1ccc(CNC(=O)Cc2ccc(NC(=O)N3CCSc4ncccc43)cc2)cc1` the Potency was inconclusive [inhibitor, single point]. With `O=C(NC1CCCCCCC1)c1cccc(Cl)c1` the Potency was inconclusive [inhibitor, partial curve, poor fit]. With `CN1CCN(C(CNC(=O)C(=O)Nc2ccc3c(c2)OCCO3)c2ccc(F)cc2)CC1` (stereo not drawn) the Potency was inconclusive [inhibitor, single point].
